# From the supplement of paper PMC8728848
# This is one part of the list.
# B1: FimD (Bordetella pertussis) (protein)
# chain: MPARVISFCGAALAVWAGLAVQPAMAVDPPVDCGRALGLHFWSSASLISDQTPDGTLIGKPVVGRSLLSKSCKVPDDIKEDLSDNHDGEPVDIVLELGSNYKIRPQSYGHPGIVVDLPFGSTEETGIAIYIDFGSSPMQKVGERQWLYPQKGEVLFDVLTINGDNAEVRYQAIKVGPLKRPRKLVLSQFPNLFTYKWVFMRGTSQERVLAQGTIDTDVATSTIDLKTCRYTSQTVSLPIIQRSALTGVGTTLGMTDFQMPFWCYGWPKVSVYMSATKTQTGVDGVALPATGQAAGMASGVGVQLINGKTQQPVKLGLQGKIALPEAQQTESATFSLPMKAQYYQTSTSTSAGKLSVTYAVTLNYD
# Legend:
# Assay in all cases: glycan array binding signal (z-score within array); higher = stronger binding
# Conditions in all cases: glycan notation: IUPAC condensed, linker removed
# [1] = target: GlcNAc(a1-4)Gal(b1-3)GlcNAc
# How it was run: (§1)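 The Consortium for Functional Glycomics database supplied 3228 glycan arrays, of which those lacking an available protein sequence were dropped. The binding signal, a within-array Z-score, was averaged across arrays of the same protein sequence and across linkers. Negative scores can be read as non-binding.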
# [2] = target: GlcNAc(a1-4)Gal(b1-4)GalNAc
# How it was run: as §1
# [3] = target: GlcNAc(a1-4)Gal(b1-4)GlcNAc
# How it was run: as §1
# [4] = target: GlcNAc(a1-4)Gal(b1-4)GlcNAc(b1-3)Gal(b1-4)Glc
# How it was run: as §1
# [5] = target: GlcNAc(a1-4)Gal(b1-4)GlcNAc(b1-3)Gal(b1-4)GlcNAc
# How it was run: as §1
# [6] = target: GlcNAc(a1-4)Gal(b1-4)GlcNAc(b1-3)Gal(b1-4)GlcNAc(b1-3)Gal(b1-4)GlcNAc
# How it was run: as §1
# [7] = target: GlcNAc(a1-4)Gal(b1-4)GlcNAc(b1-3)Gal(b1-4)[Fuc(a1-3)]GlcNAc(b1-3)Gal(b1-4)[Fuc(a1-3)]GlcNAc
# How it was run: as §1
# [8] = target: GlcNAc(a1-6)Gal(b1-4)GlcNAc
# How it was run: as §1
# [9] = target: GlcNAc(b1-2)Gal(b1-3)GalNAc
# How it was run: as §1
# [10] = target: GlcNAc(b1-2)Man(a1-3)[GlcNAc(b1-2)Man(a1-6)]Man(b1-4)GlcNAc(b1-4)GlcNAc
# How it was run: as §1
# [11] = target: GlcNAc(b1-2)Man(a1-3)[GlcNAc(b1-2)Man(a1-6)]Man(b1-4)GlcNAc(b1-4)[Fuc(a1-6)]GlcNAc
# How it was run: as §1
# [12] = target: GlcNAc(b1-2)Man(a1-3)[GlcNAc(b1-4)][GlcNAc(b1-2)Man(a1-6)]Man(b1-4)GlcNAc(b1-4)GlcNAc
# How it was run: as §1
# [13] = target: GlcNAc(b1-2)Man(a1-3)[GlcNAc(b1-4)][GlcNAc(b1-2)Man(a1-6)]Man(b1-4)GlcNAc(b1-4)[Fuc(a1-6)]GlcNAc
# How it was run: as §1
# [14] = target: GlcNAc(b1-2)[GlcNAc(b1-4)]Man(a1-3)[GlcNAc(b1-2)Man(a1-6)]Man(b1-4)GlcNAc(b1-4)GlcNAc
# How it was run: as §1
# [15] = target: GlcNAc(b1-2)[GlcNAc(b1-4)]Man(a1-3)[GlcNAc(b1-4)][GlcNAc(b1-2)Man(a1-6)]Man(b1-4)GlcNAc(b1-4)GlcNAc
# How it was run: as §1
# [16] = target: GlcNAc(b1-2)[GlcNAc(b1-4)]Man(a1-3)[GlcNAc(b1-4)][GlcNAc(b1-2)[GlcNAc(b1-6)]Man(a1-6)]Man(b1-4)GlcNAc(b1-4)GlcNAc
# How it was run: as §1
# [17] = target: GlcNAc(b1-2)[GlcNAc(b1-4)]Man(a1-3)[GlcNAc(b1-4)][GlcNAc(b1-2)[GlcNAc(b1-6)]Man(a1-6)]Man(b1-4)GlcNAc(b1-4)[Fuc(a1-6)]GlcNAc
# How it was run: as §1
# [18] = target: GlcNAc(b1-2)[GlcNAc(b1-6)]Man(a1-6)[GlcNAc(b1-2)Man(a1-3)]Man(b1-4)GlcNAc(b1-4)GlcNAc
# How it was run: as §1
# [19] = target: GlcNAc(b1-2)[GlcNAc(b1-6)]Man(a1-6)[GlcNAc(b1-2)Man(a1-3)]Man(b1-4)GlcNAc(b1-4)[Fuc(a1-6)]GlcNAc
# How it was run: as §1
# [20] = target: GlcNAc(b1-2)[GlcNAc(b1-6)]Man(a1-6)[GlcNAc(b1-4)][GlcNAc(b1-2)Man(a1-3)]Man(b1-4)GlcNAc(b1-4)GlcNAc
# How it was run: as §1
# [21] = target: GlcNAc(b1-3)Fuc
# How it was run: as §1
# [22] = target: GlcNAc(b1-3)Gal
# How it was run: as §1
# [23] = target: GlcNAc(b1-3)Gal(b1-3)GalNAc
# How it was run: as §1
# [24] = target: GlcNAc(b1-3)Gal(b1-4)Glc
# How it was run: as §1
# [25] = target: GlcNAc(b1-3)Gal(b1-4)GlcNAc
# How it was run: as §1
# [26] = target: GlcNAc(b1-3)Gal(b1-4)GlcNAc(b1-2)Man(a1-3)[GlcNAc(b1-3)Gal(b1-4)GlcNAc(b1-2)Man(a1-6)]Man(b1-4)GlcNAc(b1-4)GlcNAc
# How it was run: as §1
# [27] = target: GlcNAc(b1-3)Gal(b1-4)GlcNAc(b1-2)Man(a1-3)[GlcNAc(b1-3)Gal(b1-4)GlcNAc(b1-2)Man(a1-6)]Man(b1-4)GlcNAc(b1-4)[Fuc(a1-6)]GlcNAc
# How it was run: as §1
# [28] = target: GlcNAc(b1-3)Gal(b1-4)GlcNAc(b1-2)[GlcNAc(b1-3)Gal(b1-4)GlcNAc(b1-6)]Man(a1-6)[GlcNAc(b1-3)Gal(b1-4)GlcNAc(b1-2)Man(a1-3)]Man(b1-4)GlcNAc(b1-4)GlcNAc
# How it was run: as §1
# [29] = target: GlcNAc(b1-3)Gal(b1-4)GlcNAc(b1-3)Gal(b1-4)GlcNAc
# How it was run: as §1
# [30] = target: GlcNAc(b1-3)Gal(b1-4)GlcNAc(b1-3)Gal(b1-4)GlcNAc(b1-2)Man(a1-3)[GlcNAc(b1-3)Gal(b1-4)GlcNAc(b1-3)Gal(b1-4)GlcNAc(b1-2)Man(a1-6)]Man(b1-4)GlcNAc(b1-4)GlcNAc
# How it was run: as §1
# [31] = target: GlcNAc(b1-3)Gal(b1-4)GlcNAc(b1-3)Gal(b1-4)GlcNAc(b1-2)Man(a1-3)[GlcNAc(b1-3)Gal(b1-4)GlcNAc(b1-3)Gal(b1-4)GlcNAc(b1-2)Man(a1-6)]Man(b1-4)GlcNAc(b1-4)[Fuc(a1-6)]GlcNAc
# How it was run: as §1
# [32] = target: GlcNAc(b1-3)Gal(b1-4)GlcNAc(b1-3)Gal(b1-4)GlcNAc(b1-2)[GlcNAc(b1-3)Gal(b1-4)GlcNAc(b1-3)Gal(b1-4)GlcNAc(b1-6)]Man(a1-6)[GlcNAc(b1-3)Gal(b1-4)GlcNAc(b1-3)Gal(b1-4)GlcNAc(b1-2)Man(a1-3)]Man(b1-4)GlcNAc(b1-4)[Fuc(a1-6)]GlcNAc
# How it was run: as §1
# [33] = target: GlcNAc(b1-3)Gal(b1-4)GlcNAc(b1-3)Gal(b1-4)GlcNAc(b1-3)Gal(b1-4)GlcNAc(b1-2)Man(a1-3)[GlcNAc(b1-3)Gal(b1-4)GlcNAc(b1-3)Gal(b1-4)GlcNAc(b1-3)Gal(b1-4)GlcNAc(b1-2)Man(a1-6)]Man(b1-4)GlcNAc(b1-4)GlcNAc
# How it was run: as §1
# [34] = target: GlcNAc(b1-3)Gal(b1-4)GlcNAc(b1-3)Gal(b1-4)GlcNAc(b1-3)Gal(b1-4)GlcNAc(b1-2)Man(a1-3)[GlcNAc(b1-3)Gal(b1-4)GlcNAc(b1-3)Gal(b1-4)GlcNAc(b1-3)Gal(b1-4)GlcNAc(b1-2)Man(a1-6)]Man(b1-4)GlcNAc(b1-4)[Fuc(a1-6)]GlcNAc
# How it was run: as §1
# [35] = target: GlcNAc(b1-3)Gal(b1-4)GlcNAc(b1-3)Gal(b1-4)GlcNAc(b1-3)Gal(b1-4)GlcNAc(b1-2)[GlcNAc(b1-3)Gal(b1-4)GlcNAc(b1-3)Gal(b1-4)GlcNAc(b1-3)Gal(b1-4)GlcNAc(b1-6)]Man(a1-6)[GlcNAc(b1-3)Gal(b1-4)GlcNAc(b1-3)Gal(b1-4)GlcNAc(b1-3)Gal(b1-4)GlcNAc(b1-2)Man(a1-3)]Man(b1-4)GlcNAc(b1-4)[Fuc(a1-6)]GlcNAc
# How it was run: as §1
# [36] = target: GlcNAc(b1-3)Gal(b1-4)GlcNAc(b1-3)Gal(b1-4)GlcNAc(b1-3)Gal(b1-4)GlcNAc(b1-3)Gal(b1-4)GlcNAc(b1-2)Man(a1-3)[GlcNAc(b1-3)Gal(b1-4)GlcNAc(b1-3)Gal(b1-4)GlcNAc(b1-3)Gal(b1-4)GlcNAc(b1-3)Gal(b1-4)GlcNAc(b1-2)Man(a1-6)]Man(b1-4)GlcNAc(b1-4)GlcNAc
# How it was run: as §1
# [37] = target: GlcNAc(b1-3)Gal(b1-4)GlcNAc(b1-3)Gal(b1-4)GlcNAc(b1-3)Gal(b1-4)GlcNAc(b1-3)Gal(b1-4)GlcNAc(b1-2)Man(a1-3)[GlcNAc(b1-3)Gal(b1-4)GlcNAc(b1-3)Gal(b1-4)GlcNAc(b1-3)Gal(b1-4)GlcNAc(b1-3)Gal(b1-4)GlcNAc(b1-2)Man(a1-6)]Man(b1-4)GlcNAc(b1-4)[Fuc(a1-6)]GlcNAc
# How it was run: as §1
# [38] = target: GlcNAc(b1-3)Gal(b1-4)GlcNAc(b1-3)Gal(b1-4)GlcNAc(b1-3)Gal(b1-4)GlcNAc(b1-3)Gal(b1-4)GlcNAc(b1-2)[GlcNAc(b1-3)Gal(b1-4)GlcNAc(b1-3)Gal(b1-4)GlcNAc(b1-3)Gal(b1-4)GlcNAc(b1-3)Gal(b1-4)GlcNAc(b1-6)]Man(a1-6)[GlcNAc(b1-3)Gal(b1-4)GlcNAc(b1-3)Gal(b1-4)GlcNAc(b1-3)Gal(b1-4)GlcNAc(b1-3)Gal(b1-4)GlcNAc(b1-2)Man(a1-3)]Man(b1-4)GlcNAc(b1-4)[Fuc(a1-6)]GlcNAc
# How it was run: as §1
binder,measurement,setting,value
B1,glycan array binding signal (z-score),[1],-0.038
same,glycan array binding signal (z-score),[2],-0.046
same,glycan array binding signal (z-score),[3],0.198
same,glycan array binding signal (z-score),[4],1.99
same,glycan array binding signal (z-score),[5],0.499
same,glycan array binding signal (z-score),[6],-0.238
same,glycan array binding signal (z-score),[7],0.379
same,glycan array binding signal (z-score),[8],-0.109
same,glycan array binding signal (z-score),[9],0.056
same,glycan array binding signal (z-score),[10],0.004
same,glycan array binding signal (z-score),[11],1.06
same,glycan array binding signal (z-score),[12],-0.449
same,glycan array binding signal (z-score),[13],-0.367
same,glycan array binding signal (z-score),[14],-0.484
same,glycan array binding signal (z-score),[15],-0.493
same,glycan array binding signal (z-score),[16],-0.317
same,glycan array binding signal (z-score),[17],-0.389
same,glycan array binding signal (z-score),[18],-0.276
same,glycan array binding signal (z-score),[19],-0.061
same,glycan array binding signal (z-score),[20],-0.119
same,glycan array binding signal (z-score),[21],-0.267
same,glycan array binding signal (z-score),[22],-0.154
same,glycan array binding signal (z-score),[23],-0.223
same,glycan array binding signal (z-score),[24],-0.247
same,glycan array binding signal (z-score),[25],-0.296
same,glycan array binding signal (z-score),[26],-0.254
same,glycan array binding signal (z-score),[27],-0.128
same,glycan array binding signal (z-score),[28],1.12
same,glycan array binding signal (z-score),[29],-0.049
same,glycan array binding signal (z-score),[30],0.779
same,glycan array binding signal (z-score),[31],-0.021
same,glycan array binding signal (z-score),[32],1.12
same,glycan array binding signal (z-score),[33],-0.233
same,glycan array binding signal (z-score),[34],0.32
same,glycan array binding signal (z-score),[35],1.29
same,glycan array binding signal (z-score),[36],0.316
same,glycan array binding signal (z-score),[37],-0.184
same,glycan array binding signal (z-score),[38],0.07
